# Assay results as given in the supplement of paper PMC3334620.
# In all, about 33,000 sequences were measured (“E-score (-0.5 to 0.5)”: median about -0.054, highest 2% from about 0.35 on). The list shows a part of the results.
# Target: T1, Stb5 (UniProt P38699)
# T1 sequence: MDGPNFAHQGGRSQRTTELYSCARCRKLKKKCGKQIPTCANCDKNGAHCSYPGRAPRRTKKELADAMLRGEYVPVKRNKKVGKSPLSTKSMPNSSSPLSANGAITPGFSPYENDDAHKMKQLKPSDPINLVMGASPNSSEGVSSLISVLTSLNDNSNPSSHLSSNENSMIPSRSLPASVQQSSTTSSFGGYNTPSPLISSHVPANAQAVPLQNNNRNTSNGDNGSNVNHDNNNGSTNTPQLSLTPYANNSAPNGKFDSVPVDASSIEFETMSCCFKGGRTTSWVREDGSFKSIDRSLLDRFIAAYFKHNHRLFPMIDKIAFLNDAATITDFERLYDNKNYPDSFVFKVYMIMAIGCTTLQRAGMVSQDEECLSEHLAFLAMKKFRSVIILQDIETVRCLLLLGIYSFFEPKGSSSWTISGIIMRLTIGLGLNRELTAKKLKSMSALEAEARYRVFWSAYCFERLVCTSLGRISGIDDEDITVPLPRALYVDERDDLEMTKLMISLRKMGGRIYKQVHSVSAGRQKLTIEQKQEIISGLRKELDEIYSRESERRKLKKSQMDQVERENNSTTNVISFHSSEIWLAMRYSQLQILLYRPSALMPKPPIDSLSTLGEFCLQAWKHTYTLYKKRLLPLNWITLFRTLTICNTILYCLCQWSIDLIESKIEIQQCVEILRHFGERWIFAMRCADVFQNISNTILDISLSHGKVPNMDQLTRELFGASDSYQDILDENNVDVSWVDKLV
# Experiment: PBM E-score (8-mer binding enrichment) (E-score (-0.5 to 0.5)); higher = stronger / more preferred TF binding; most listed sequences are background and not binding sites
# Conditions: protein concentration: 200 nM; construct: GST-full length
# In short: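 Yeast transcription factors, full-length or as DNA-binding domains, were expressed with a GST tag using PURExpress in vitro transcription/translation. At about 100-200 nM they were applied to universal all-10-mer Agilent arrays, double-stranded by primer extension on fresh or once-stripped slides. Fluorescent anti-GST detected bound protein, and masliner normalised the scans. E-scores for ungapped eight-base words, pooled with reverse complements, came from the Universal PBM Analysis Suite.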
row,Sequence,PBM E-score
1,ACTGTCAC,-0.1
2,CAGGGTTA,-0.101
3,CGACGTCC,0.0474
4,GTTGTACA,0.111
5,GGCCATGA,-0.0728
6,GCTTATGA,-0.151
7,GCCGTTGA,0.164
8,CTCTCCAA,0.0654
9,CCGTTGAG,0.16
10,ATGGCACA,-0.0455
11,TCTTTTAA,-0.014
12,CCGCGGGA,0.349
13,ACCGTAAG,0.27
14,ACTAACTA,-0.0974
15,ATGGGCTA,-0.306
16,CCGGAGGA,0.289
17,AAGTCTCG,-0.119
18,CAAAAGTA,-0.192
19,GGTTTTTA,0.102
20,AGTTGGGC,-0.17
21,GACCGAAA,0.23
22,CCTACGAC,-0.229

row,Sequence,PBM E-score
1,CGCTGAGC,-0.103
2,TCGTAAAA,-0.0435
3,CCAACCAA,-0.0723
4,ACACGGCC,0.116
5,CAGCCCTC,-0.0803
6,AGGCGGTG,0.342
7,ACTAGCCG,-0.0412
8,CCTCTGCA,-0.214
9,CTATGGCA,-0.142
10,TCATGCCA,-0.253
11,CGCGCAAC,0.09
12,ATGGACCA,-0.144
13,ATCCGTGC,0.062
14,GTGTGTTA,-0.00114
15,AATCTAAT,-0.0604
16,CGGCGGAA,0.348
17,CTAGAGTA,-0.0292
18,AATTCGTC,-0.107
19,ATCAATAG,-0.165
20,AACCCTTC,-0.131
21,CTCCCTCA,-0.151
22,ATAGGACA,-0.148

row,Sequence,PBM E-score
1,CCACGTTA,-0.198
2,AAATGGGG,-0.0385
3,ACTATCCA,0.0766
4,CCCGATGC,0.314
5,GCCCTGGA,0.124
6,ACACAAAC,0.0561
7,ACACCAGT,-0.186
8,AGAACCCA,-0.339
9,CATAGGAA,-0.0944
10,GGCTATGA,-0.0374
11,TATTTGGA,-0.157
12,GAGGACCA,-0.254
13,AGTCCTCC,-0.0869
14,CCACGAGA,-0.203
15,CCCAGACA,-0.23
16,GCACTGAC,-0.002
17,GAGGGACA,-0.148
18,ATGTTAAT,-0.107
19,CCAGCCGC,-0.062
20,AGATTAAA,0.00141
21,CCATTGAC,-0.00058
22,ATTCTAAA,-0.0797

row,Sequence,PBM E-score
1,TCCGTTCA,0.0759
2,AGAGTACG,-0.176
3,AACGTAAT,-0.222
4,AGGCTCGC,0.0633
5,CGAAGGAA,-0.188
6,ATAAGGGA,-0.229
7,ATCGGAGC,0.324
8,CTTTTAAA,0.178
9,ATTACCTG,-0.0469
10,CCGCAGCA,0.246
11,AAGGCCGT,0.421
12,ACCGCATG,0.172
13,AGTGTTAC,-0.0686
14,AGGCGCCG,0.245
15,ACGCTTGA,-0.115
16,AAATGGCA,-0.114
17,GTAGTATA,0.129
18,AAGGCTTA,-0.203
19,CATGCTCG,-0.183
20,ATGGGACG,-0.115
21,CAAAGGGC,-0.0898
22,AGTTTGAT,-0.0389

row,Sequence,PBM E-score
1,CAACCCCA,-0.221
2,CAAAGTGA,-0.131
3,CAGACACC,0.0808
4,CGGTCTCC,0.195
5,ACGATACG,-0.389
6,CGAAGGGA,-0.0862
7,GGCAACGA,-0.0788
8,GAATCGGA,0.241
9,CCCGACCG,0.355
10,CTAGTCCA,-0.00206
11,ACTGACCC,-0.00168
12,CGGGTCTA,0.412
13,AGTAGTGG,-0.202
14,AATTAGAA,0.00026
15,ACATGTCA,-0.148
16,AGGCGGGC,0.275
17,ACCCGTAC,0.0674
18,ATAAAGGC,0.128
19,AGAACTCA,-0.191
20,AGTGATCA,-0.104
21,AGACGTAT,-0.172
22,GGCGCACC,0.0839
